# Reference: the supplement of paper PMC8728848
# The other results are listed elsewhere or left out.
# B1: SGC, Q9M345 (protein)
# chain: QNLNFTYNGFHPPLTDISLQGLATVTPNGLLKLTNTSVQKTGHAFCTERIRFKDSQNGNVSSFSTTFVFAIHSQIPTLSGHGIAFVVAPTLGLPFALPSQYIGLFNISNNGNDTNHIFAVEFDTIQSSEFGDPNDNHVGIDLNGLRSANYSTAGYRDDHDKFQNLSLISRKRIQVWIDYDNRSHRIDVTVAPFDSDKPRKPLVSYVRDLSSILLEDMYVGFSSATGSVLSEHFLVGWSFRLNGEAPMLSLSKLPKLPRFEPRRIS
# Experiments:
# Test in all cases: glycan array binding signal (z-score within array); higher = stronger binding
# Settings in all cases: glycan notation: IUPAC condensed, linker removed
# [1] = target: Neu5Ac(a2-3)Gal(b1-3)GlcNAc
# Procedure, shortened: (§1)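 The Consortium for Functional Glycomics database supplied 3228 glycan arrays, of which those lacking an available protein sequence were dropped. The binding signal, a within-array Z-score, was averaged across arrays of the same protein sequence and across linkers. Negative scores can be read as non-binding.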
# [2] = target: Neu5Ac(a2-3)Gal(b1-3)GlcNAc(b1-2)Man
# Procedure, shortened: as §1
# [3] = target: Neu5Ac(a2-3)Gal(b1-3)GlcNAc(b1-2)Man(a1-3)[GlcNAc(b1-4)][Neu5Ac(a2-3)Gal(b1-3)GlcNAc(b1-2)Man(a1-6)]Man(b1-4)GlcNAc(b1-4)GlcNAc
# Procedure, shortened: as §1
# [4] = target: Neu5Ac(a2-3)Gal(b1-3)GlcNAc(b1-2)Man(a1-3)[Neu5Ac(a2-3)Gal(b1-3)GlcNAc(b1-2)Man(a1-6)]Man(b1-4)GlcNAc(b1-4)GlcNAc
# Procedure, shortened: as §1
# [5] = target: Neu5Ac(a2-3)Gal(b1-3)GlcNAc(b1-2)[Neu5Ac(a2-3)Gal(b1-3)GlcNAc(b1-4)]Man(a1-6)[Neu5Ac(a2-3)Gal(b1-3)GlcNAc(b1-2)Man(a1-3)]Man(b1-4)GlcNAc(b1-4)GlcNAc
# Procedure, shortened: as §1
# [6] = target: Neu5Ac(a2-3)Gal(b1-3)GlcNAc(b1-3)Gal(b1-3)GlcNAc
# Procedure, shortened: as §1
# [7] = target: Neu5Ac(a2-3)Gal(b1-3)GlcNAc(b1-3)Gal(b1-4)GlcNAc
# Procedure, shortened: as §1
# [8] = target: Neu5Ac(a2-3)Gal(b1-3)GlcNAc(b1-3)GalNAc
# Procedure, shortened: as §1
# [9] = target: Neu5Ac(a2-3)Gal(b1-3)GlcNAc(b1-6)GalNAc
# Procedure, shortened: as §1
# [10] = target: Neu5Ac(a2-3)Gal(b1-3)GlcNAc6S
# Procedure, shortened: as §1
# [11] = target: Neu5Ac(a2-3)Gal(b1-3)[Fuc(a1-4)]GlcNAc
# Procedure, shortened: as §1
# [12] = target: Neu5Ac(a2-3)Gal(b1-3)[Fuc(a1-4)]GlcNAc(b1-3)Gal(b1-3)[Fuc(a1-4)]GlcNAc
# Procedure, shortened: as §1
# [13] = target: Neu5Ac(a2-3)Gal(b1-3)[Fuc(a1-4)]GlcNAc(b1-3)Gal(b1-4)[Fuc(a1-3)]GlcNAc
# Procedure, shortened: as §1
# [14] = target: Neu5Ac(a2-3)Gal(b1-3)[GlcNAc(b1-6)]GalNAc
# Procedure, shortened: as §1
# [15] = target: Neu5Ac(a2-3)Gal(b1-3)[Neu5Ac(a2-6)]GalNAc
# Procedure, shortened: as §1
# [16] = target: Neu5Ac(a2-3)Gal(b1-3)[Neu5Ac(a2-6)]GlcNAc(b1-3)[Fuc(a1-3)[Gal(b1-4)]GlcNAc(b1-6)]Gal(b1-4)Glc
# Procedure, shortened: as §1
# [17] = target: Neu5Ac(a2-3)Gal(b1-3)]Neu5Ac(a2-3)Gal(b1-4)]GlcNAc
# Procedure, shortened: as §1
# Neu5Ac(a2-3)Gal(b1-4)Glc = target: Neu5Ac(a2-3)Gal(b1-4)Glc
# Procedure, shortened: as §1
# [18] = target: Neu5Ac(a2-3)Gal(b1-4)GlcNAc
# Procedure, shortened: as §1
# [19] = target: Neu5Ac(a2-3)Gal(b1-4)GlcNAc(b1-2)Man
# Procedure, shortened: as §1
# [20] = target: Neu5Ac(a2-3)Gal(b1-4)GlcNAc(b1-2)Man(a1-3)[GlcNAc(b1-4)][Neu5Ac(a2-3)Gal(b1-4)GlcNAc(b1-2)Man(a1-6)]Man(b1-4)GlcNAc(b1-4)GlcNAc
# Procedure, shortened: as §1
# [21] = target: Neu5Ac(a2-3)Gal(b1-4)GlcNAc(b1-2)Man(a1-3)[Neu5Ac(a2-3)Gal(b1-4)GlcNAc(b1-2)Man(a1-6)]Man(b1-4)GlcNAc(b1-4)GlcNAc
# Procedure, shortened: as §1
# [22] = target: Neu5Ac(a2-3)Gal(b1-4)GlcNAc(b1-2)Man(a1-3)[Neu5Ac(a2-3)Gal(b1-4)GlcNAc(b1-2)Man(a1-6)]Man(b1-4)GlcNAc(b1-4)[Fuc(a1-6)]GlcNAc
# Procedure, shortened: as §1
# [23] = target: Neu5Ac(a2-3)Gal(b1-4)GlcNAc(b1-2)Man(a1-3)[Neu5Ac(a2-6)Gal(b1-4)GlcNAc(b1-2)Man(a1-6)]Man(b1-4)GlcNAc(b1-4)GlcNAc
# Procedure, shortened: as §1
# [24] = target: Neu5Ac(a2-3)Gal(b1-4)GlcNAc(b1-2)[Neu5Ac(a2-3)Gal(b1-4)GlcNAc(b1-4)]Man(a1-3)[GlcNAc(b1-4)][Neu5Ac(a2-3)Gal(b1-4)GlcNAc(b1-2)[Neu5Ac(a2-3)Gal(b1-4)GlcNAc(b1-6)]Man(a1-6)]Man(b1-4)GlcNAc(b1-4)GlcNAc
# Procedure, shortened: as §1
# [25] = target: Neu5Ac(a2-3)Gal(b1-4)GlcNAc(b1-2)[Neu5Ac(a2-3)Gal(b1-4)GlcNAc(b1-4)]Man(a1-3)[GlcNAc(b1-4)][Neu5Ac(a2-3)Gal(b1-4)GlcNAc(b1-4)Man(a1-6)]Man(b1-4)GlcNAc(b1-4)GlcNAc
# Procedure, shortened: as §1
# [26] = target: Neu5Ac(a2-3)Gal(b1-4)GlcNAc(b1-2)[Neu5Ac(a2-3)Gal(b1-4)GlcNAc(b1-6)]Man(a1-6)[Neu5Ac(a2-3)Gal(b1-4)GlcNAc(b1-2)Man(a1-3)][GlcNAc(b1-4)]Man(b1-4)GlcNAc(b1-4)GlcNAc
# Procedure, shortened: as §1
# [27] = target: Neu5Ac(a2-3)Gal(b1-4)GlcNAc(b1-3)Gal
# Procedure, shortened: as §1
# [28] = target: Neu5Ac(a2-3)Gal(b1-4)GlcNAc(b1-3)Gal(b1-3)GlcNAc
# Procedure, shortened: as §1
# [29] = target: Neu5Ac(a2-3)Gal(b1-4)GlcNAc(b1-3)Gal(b1-4)GlcNAc
# Procedure, shortened: as §1
# [30] = target: Neu5Ac(a2-3)Gal(b1-4)GlcNAc(b1-3)Gal(b1-4)GlcNAc(b1-2)Man(a1-3)[Neu5Ac(a2-3)Gal(b1-4)GlcNAc(b1-3)Gal(b1-4)GlcNAc(b1-2)Man(a1-6)]Man(b1-4)GlcNAc(b1-4)GlcNAc
# Procedure, shortened: as §1
# [31] = target: Neu5Ac(a2-3)Gal(b1-4)GlcNAc(b1-3)Gal(b1-4)GlcNAc(b1-3)Gal(b1-4)GlcNAc
# Procedure, shortened: as §1
# [32] = target: Neu5Ac(a2-3)Gal(b1-4)GlcNAc(b1-3)Gal(b1-4)GlcNAc(b1-3)Gal(b1-4)GlcNAc(b1-2)Man(a1-3)[Neu5Ac(a2-3)Gal(b1-4)GlcNAc(b1-3)Gal(b1-4)GlcNAc(b1-3)Gal(b1-4)GlcNAc(b1-2)Man(a1-6)]GalNAc
# Procedure, shortened: as §1
# [33] = target: Neu5Ac(a2-3)Gal(b1-4)GlcNAc(b1-3)Gal(b1-4)GlcNAc(b1-3)GalNAc
# Procedure, shortened: as §1
# [34] = target: Neu5Ac(a2-3)Gal(b1-4)GlcNAc(b1-3)Gal(b1-4)GlcNAc(b1-3)[Neu5Ac(a2-3)Gal(b1-4)GlcNAc(b1-3)Gal(b1-4)GlcNAc(b1-6)]GalNAc
# Procedure, shortened: as §1
# [35] = target: Neu5Ac(a2-3)Gal(b1-4)GlcNAc(b1-3)Gal(b1-4)GlcNAc(b1-6)[Gal(b1-3)]GalNAc
# Procedure, shortened: as §1
# [36] = target: Neu5Ac(a2-3)Gal(b1-4)GlcNAc(b1-3)Gal(b1-4)[Fuc(a1-3)]GlcNAc
# Procedure, shortened: as §1
# [37] = target: Neu5Ac(a2-3)Gal(b1-4)GlcNAc(b1-3)GalNAc
# Procedure, shortened: as §1
binder,measurement,setting,value
B1,glycan array binding signal (z-score),[1],-0.349
same,glycan array binding signal (z-score),[2],-0.433
same,glycan array binding signal (z-score),[3],-0.362
same,glycan array binding signal (z-score),[4],0.081
same,glycan array binding signal (z-score),[5],-0.24
same,glycan array binding signal (z-score),[6],-0.482
same,glycan array binding signal (z-score),[7],-0.413
same,glycan array binding signal (z-score),[8],-0.335
same,glycan array binding signal (z-score),[9],-0.249
same,glycan array binding signal (z-score),[10],-0.283
same,glycan array binding signal (z-score),[11],-0.301
same,glycan array binding signal (z-score),[12],-0.332
same,glycan array binding signal (z-score),[13],-0.418
same,glycan array binding signal (z-score),[14],-0.332
same,glycan array binding signal (z-score),[15],-0.352
same,glycan array binding signal (z-score),[16],-0.198
same,glycan array binding signal (z-score),[17],-0.301
same,glycan array binding signal (z-score),Neu5Ac(a2-3)Gal(b1-4)Glc,0.069
same,glycan array binding signal (z-score),[18],-0.311
same,glycan array binding signal (z-score),[19],-0.386
same,glycan array binding signal (z-score),[20],-0.038
same,glycan array binding signal (z-score),[21],-0.297
same,glycan array binding signal (z-score),[22],-0.334
same,glycan array binding signal (z-score),[23],-0.356
same,glycan array binding signal (z-score),[24],-0.404
same,glycan array binding signal (z-score),[25],-0.366
same,glycan array binding signal (z-score),[26],-0.336
same,glycan array binding signal (z-score),[27],-0.387
same,glycan array binding signal (z-score),[28],-0.417
same,glycan array binding signal (z-score),[29],-0.344
same,glycan array binding signal (z-score),[30],0.489
same,glycan array binding signal (z-score),[31],-0.393
same,glycan array binding signal (z-score),[32],0.533
same,glycan array binding signal (z-score),[33],-0.318
same,glycan array binding signal (z-score),[34],-0.172
same,glycan array binding signal (z-score),[35],-0.349
same,glycan array binding signal (z-score),[36],-0.395
same,glycan array binding signal (z-score),[37],-0.36
